Drawing on PubChem BioAssay AID1347044 (National Center for Advancing Translational Sciences (NCATS), 2019), this text covers CC50 for 39 molecules.

By CC50 is commonly meant the concentration at which the toxic effect on the cells reaches its halfway point.

Molecules are shown by their SMILES. The list shows a part of the results. Shown are side measurements of this screen, not its main read-out; they come without a call. Most of these compounds were active or inconclusive in the main read-out, so they are no random draw. Words in brackets tell the shape of the fitted curve; partial curves, single points and poor fits give uncertain potencies.
Tags give direction and shape of the fitted curve.

This assay is described as follows: Natriuretic polypeptide receptor (hNpr1) antagonism - Confirmation. Note: nearly all actives have a fitted effect of over 70% in size. Conditions: HEK293 hNpr1 cGMP GloSensor luminescence, ANP-stimulated; measured here: HEK-hNpr1 cytotoxicity, CellTiter-Glo. Here is the method: In order to identify small molecular compounds that inhibit the hNpr1 receptor we developed a high-throughput assay to measure inhibition of the guanylate cyclase activity of the receptor. cGMP production was measured using a circular permutated Firefly luciferase (FLuc) enzyme functionally linked to the cGMP binding domain of human phosphodiesterase 5 (GloSensor technology pGS-40F, (Fan, F. et al. 2008). The cGMP-sensor was expressed in human embryonic kidney 293 (HEK-293) cells and FLuc activity was measured after stimulation with hNrp agonist peptide. hNrp agonists activates the receptor's associated guanylyl cyclase (GC) domain producing cGMP which then binds to the GloSensor resulting in FLuc activation, the enzymatic activity of which can be measured as bioluminescence with addition of luciferin substrate. A cytotoxicity counter-screen using the HEK-hNpr1-cGMP-sensor cells was also performed on the follow-up compounds. F. Fan, B. F. Binkowski, B. L. Butler, P. F. Stecha, M. K. Lewis, K. V. Wood, Novel genetically encoded biosensors using firefly luciferase. ACS Chem Biol 3, 346-351 (2008).
PROTOCOL TABLES (as described by Inglese J, Shamu CE and Guy RK. 2007) SEQUENCE No. (e.g., 1, 2, 3, etc.); PARAMETER (e.g., Cells, Incubation, Reagent, etc.); VALUE and DESCRIPTION. GLOSENSOR PROTOCOL 1. Cells. Seed 1500 HEK293 cGMP-sensor cells expressing hNpr1 per well in 4uL into Greiner 1536-well white/solid bottom high base, tissue culture-treated plates. 2. Incubation. Incubate plated cells at 37C in 5% CO2, 95% RH overnight. 3. Reagent. Add 1uL per well GloSensor reagent from Promega (2% final concentration) or CO2 independent media vehicle control to respective columns of Greiner 1536-well plates. 4. Incubation. Incubate plated cells at room temperature for 2 h, protect from light. 5. Compounds. Library compounds and A-71915 control added at 23 nL per well, transferred by Pin Tool. 6. Incubation. Incubate plated cells for 30 min. at room temperature, protect from light. 7. Detector. GloSensor baseline pre-read luminescence measured using CCD-based camera (Viewlux). 8. Compound. Add 1uL of hNppA peptide to 0.1 nM final concentration to stimulate hNpr1 or CO2 independent media as vehicle control. 9. Incubation. Incubate treated cells at room temperature for 20 min., protect from light. 10. Detector. GloSensor post-hNppA luminescence measured using CCD-based camera (Viewlux). NOTES (numbers refer to Sequence numbers above) 1. HEK293 cells expressing hNpr1 and GIP/pGS-40F grown to 85-95% confluence (48-72 h) in T175 culture flasks (CO2 independent media supplemented with 10% FBS, 1% Pen/Strep antibiotics and 1 ug/mL puromycin). Trypsinize and harvest cells from T175 culture flasks and filter through 40 um cell strainer. Cells counted with Invitrogen Countess (30,000,000 - 50,000,000 cells/flask). Cells diluted to a final concentration of 375 cells/uL in CO2 independent media and a Millipore multidrop used to dispense 1500 cells per well (4uL/well) into 13 1536-well Greiner White/Solid bottom, high base tissue-culture treated (TC) plates and one Aurora 1536-well Black/Clear bottom, low base, TC plate (for visual inspection of cell health throughout the duration of the assay). 2. Cells incubated overnight at ambient temperature, 24 h. at 37C in 95% RH incubator protected from light, covered with metal lid with gas-exchange holes. 3. Prepare GloSensor Reagent (Promega): Reconstitute GloSensor luciferase substrate by adding 8.2mL Hepes buffer to 250mg substrate, mix well, protect from light and stored at -80C. Prepare a fresh 12% GloSensor solution in CO2 independent supplemented plating media (see above). Mix well and store at ambient temperature, protected from light. 1uL 12% GloSensor Luciferase Reagent added (2% final concentration) to respective columns of 13 x 1536-well Greiner plate with BioRaptr, 1uL CO2 independent plating media added to respective columns as vehicle control with BioRaptr. 4. […]
`COc1ccc(-c2noc(CC3CCN(C(=O)c4cc(Cl)ccc4OC)CC3)n2)cc1`: the CC50 was 24.3 µM [falling, partial curve].
For the molecule `O=C(COc1ccc(Cl)cc1)N1CCC(Cc2nc(-c3ccccc3)no2)CC1`, the CC50 was 19.3 µM [falling, partial curve].
As for `COc1ccc(-c2cc(N3CCN(C(=O)c4ccc(OC)cc4OC)CC3)n[nH]2)cc1`, the CC50 is 19.3 µM [falling, partial curve].
As for `O=C(CCC1CCN(C(=O)c2ccccc2F)CC1)Nc1cccc(Cl)c1`, the CC50 is 30.6 µM [falling, single point].
For `CN(C)[S+](=O)([O-])c1ccc2c(c1)OCCN(Cc1ccc(C(F)(F)F)cc1)C2`, the CC50 is 28 µM [falling, partial curve].
On to `COc1ccccc1C(=O)NC1CCN(c2cc(C(F)(F)F)nc(C)n2)CC1`, for which the CC50 is 27.3 µM [falling, single point].
For `CN(C)c1cccc(Oc2nnnn2[C@H]2CO[C@H]3[C@@H]2OC[C@@H]3NC(=O)c2ccccc2)c1`, the CC50 is 21.7 µM [falling, partial curve].
As for `O=C(Nc1ccccc1)N1CC(Oc2ccc(-c3noc(-c4ccncc4)n3)cc2)C1`, the CC50 was 6.85 µM [falling, full curve].
With `CC(C)c1ccc(CC(=O)N2CCCc3ncc(C(=O)Nc4ccccc4)cc32)cc1`, the CC50 was 19.8 µM [falling, partial curve].
Turning to `O=C1COc2ccc(N3CCCC3)nc2CN1Cc1ccc(C(F)(F)F)cc1`, the CC50 was 49.8 µM [falling, single point].
Take `COc1ccc(NC(=O)c2ccc3c(c2)NC(C)(CNc2ccccc2)CO3)cn1` (centres undefined): the CC50 is 35.3 µM [falling, partial curve].
Regarding `COc1ccc(-c2nnc(C[C@@H]3C[C@@H](C(C)C)[C@H](CNc4ccccn4)C=C3C)o2)cc1`, the CC50 is 31.4 µM [falling, partial curve].
Regarding `CCCCN(C)C(=O)CC1CCN(c2ccnc(OC)n2)CC1`, the CC50 was 19.3 µM [falling, partial curve].
As for `Cc1ccc(OCCC2CCN(C(=O)Cc3cccnc3)C2)cc1` (centres undefined), the CC50 is 30.6 µM [falling, single point].
`CN(Cc1cccnc1)c1nc2c(c(=O)[nH]1)CCN(Cc1ccc(Cl)cc1F)CC2`: the CC50 is 17.2 µM [falling, partial curve].
As to `Fc1cccc(CN2CCC(Oc3ccc(-c4noc(C5CC5)n4)cc3)C2)c1` (centres undefined), the CC50 was 24.3 µM [falling, partial curve, poor fit].
Consider `Cc1ccc(C(=O)N2CCN(C(=O)c3nnn4c3COC(c3ccc(Cl)cc3)C4)CC2)c(C)c1` (centres undefined), for which the CC50 was 21.7 µM [falling, partial curve].
For `Cc1ccc(CN2C[C@@H](CO)[C@H](c3nc(-c4ccncc4)no3)C2)cc1`, the CC50 is 24.3 µM [falling, partial curve].
`COc1ccccc1-c1ccc(CN2CCCC(c3nc4ccc(C)cc4c(=O)[nH]3)C2)cc1` (centres undefined): the CC50 is 43.2 µM [falling, single point].
`COc1ccc(C(=O)Nc2ccc(-c3noc([C@@H]4CCCN4Cc4ccco4)n3)cn2)cc1`: the CC50 is 19.3 µM [falling, partial curve].
Take `Cn1cc(-c2cnc3[nH]cc(CC(=O)Nc4ccc(C(F)(F)F)cc4)c3c2)cn1`: the CC50 is 19.8 µM [falling, partial curve].
As to `O=C(NC1CCN(Cc2ccccc2)CC1)c1cc2n(n1)CC(c1ccc(Cl)cc1)OC2` (centres undefined), the CC50 was 9.68 µM [falling, partial curve].
For `CC(C)C1=NOC2(CCN(Cc3ccc(C(F)(F)F)cc3)CC2)C1`, the CC50 is 22.2 µM [falling, partial curve].
Regarding `COc1cccc(-c2ccccc2NC(=O)C2CCN(Cc3cc(OC)ccc3O)CC2)c1`, the CC50 is 38.5 µM [falling, single point].
On to `COc1ccc(C(=O)N[C@H]2CO[C@H]3[C@@H]2OC[C@@H]3n2nnnc2Oc2cccc(N(C)C)c2)cc1`, for which the CC50 was 17.2 µM [falling, partial curve].
With `CN(CCc1ccccc1)C(=O)CCC1CCN(c2cc(NC3CC3)ncn2)CC1`, the CC50 is 21.7 µM [falling, partial curve].
For `COc1cccc(N2CCN(c3nc(C(=O)NCc4cccc(C)c4)cs3)CC2)c1` the value was 15.3 µM [falling, partial curve]; for `Cc1ccc(C(=O)N2CCN(c3cc(-c4cccs4)[nH]n3)CC2)c(C)c1`, 24.3 µM [falling, partial curve].
For `Fc1ccc(CN2CCC(Oc3ccccc3-c3nc(-c4cnccn4)no3)C2)cc1F` (centres undefined) the value was 24.3 µM [falling, partial curve, poor fit]; for `Cc1ccc(C(=O)N2CCC(Cc3nc(-c4ccc(F)cc4)no3)CC2)cn1`, 1.93 µM [falling, full curve]; for `O=C1COCC2(CN1)CN(c1ccc(Oc3ccccc3)cc1)C2`, 11.1 µM [falling, full curve].
For `O=C(c1cc(F)cc(F)c1)N1CCC(Cc2nc(-c3ccccc3)no2)CC1`, the CC50 was 9.68 µM [falling, partial curve].
On to `CN(C)c1ccc(CN2CCn3c(nn(-c4ccc([N+](=O)[O-])cc4)c3=O)C2)cc1`, for which the CC50 is 34.3 µM [falling, single point].
Turning to `O=C(c1ccncc1)N1C2CCC1CN(c1ccc(C(F)(F)F)cc1)C2`, the CC50 is 21.7 µM [falling, partial curve].
Regarding `O=C(NCCc1cccnc1)c1cc2n(n1)CC(c1ccc(Br)cc1)OC2` (centres undefined), the CC50 is 19.3 µM [falling, partial curve].
For `O=C(c1ccc2cc[nH]c2c1)N1CCC2(CC1)N=C(c1ccc(Cl)cc1)NO2` the value was 24.3 µM [falling, partial curve]; for `CCCn1cc(C(=O)NC(C)c2cnn(-c3cccc(F)c3)c2C)c(C)n1` (centres undefined), 3.85 µM [falling, full curve]; for `O=C(NCc1ccccc1F)c1ccc2c(c1)CN(Cc1ccncc1)CCO2`, 19.3 µM [falling, partial curve].
As for `Cc1cc(=O)n(CC(=O)Nc2ccc(Cl)cc2F)c(N(C)Cc2ccccc2)n1`, the CC50 is 19.3 µM [falling, partial curve].
